Assay results reported in PubChem BioAssay AID463173 (ICCB-Longwood Screening Facility, Harvard Medical School, 2010).
Out of some 52,000 compounds screened, about 1,700 (3.3%) were called active. Rule as the data show it: active = survival mostly below about 52% (no sharp cut-off); inactive = mostly above about 56%. This is one part of the list.

tested on: Wild type; assay: growth inhibition of S. aureus wild type versus tarO mutant, primary screen, teichoic acid synthesis inhibitors, RN4220, OD600 (AID 463173); conditions: S. aureus RN4220 wild type/DeltatarO growth, OD600, 18 h, active compounds read low, screened at 18.75 µg/mL (by protocol)

SMILES	survival
CCn1cc(C(=O)NCCc2ccccc2)c(=O)c2cc(S(=O)(=O)N3CCCCCC3)ccc21	inactive: 73%
Cc1nn(C(C)C(=O)N2CCN(c3ccc(F)cc3)CC2)c(=O)c2c1sc1ccccc12 (configuration not stated)	inactive: 104%
CC(=O)N1c2ccc(S(=O)(=O)N3CCC(C(=O)Nc4cccc(Cl)c4C)CC3)cc2CC1C (configuration not stated)	inactive: 89%
CC(C)(C)NC(=O)CCSc1nnc(-c2ccccc2)o1	inactive: 100%
Cc1cccc(Cn2cc(S(=O)(=O)c3ccccc3)c(=O)c3cc(F)c(N4CCOCC4)cc32)c1	inactive: 71%
CC(C)(C)C(=O)C1=C(O)C(=O)N(Cc2ccccc2)C1c1cccnc1 (configuration not stated)	inactive: 121%
CCOC(=O)Cn1c(=O)n(-c2cccc(Cl)c2)c2nc(-c3ccccc3Cl)nc(C(N)=O)c21	inactive: 89%
Cc1ccc2c(CC(=O)Nc3ccc(S(=O)(=O)N4CCCCC4C)cc3)coc2c1C (configuration not stated)	inactive: 86%
CCc1ccc2ncc3c(-c4ccc(F)cc4)nn(CC(=O)NC4CCCCC4)c3c2c1	inactive: 124%
CN(C)c1ccc(CNC(=O)Cc2ccc(NC(=O)N3CCCCc4ccccc43)cc2)cc1	inactive: 92%
COc1ccc(N2CCN(CCCNC(=O)c3nnc(Cc4ccc(F)cc4)o3)CC2)cc1	inactive: 116%
Cc1ccccc1OC(=O)c1nc(SCc2ccccc2F)ncc1Cl	inactive: 116%
COc1ccc(N2CCN(C(=O)c3cc4c(=O)oc5ccc(C)cc5c4s3)CC2)cc1	inactive: 120%
O=C1/C(=C\c2ccco2)SC(=S)N1Cc1ccccc1	inactive: 116%
Cc1c(C)n(Cc2ccccc2)c2ccc(C(=O)NCC(C)c3ccccc3)cc12 (configuration not stated)	inactive: 70%
Cc1ccc(N2CCN(S(=O)(=O)c3nnc(NC(=O)c4ccccc4)s3)CC2)cc1	inactive: 80%
CCOC(=O)CNC(=O)c1cc2c(=O)oc3ccccc3c2s1	inactive: 146%
CCOc1ccc(CCNC(=O)c2ccc(-n3c(C)cc4c3CCCC4)cc2)cc1OCC	inactive: 76%
c1ccc(-c2nc3ccccn3c2NC2CCCC2)nc1	inactive: 27%

SMILES	survival
O=C(Nc1ccccc1C(=O)OCc1cc(=O)n2nc(C3CC3)sc2n1)c1ccc(Cl)cc1	inactive: 77%
Cc1ccc(C)c(N2CCN(c3nc4ccc(C)cc4nc3-n3nc(C)cc3C)CC2)c1	inactive: 86%
CCOCCc1nnc(NC(=O)C(=O)c2cc(C)n(-c3ccc(C)c(C)c3)c2C)s1	inactive: 83%
O=C(Cn1cnc2nc3c(cc2c1=O)CCCC3)Nc1ccc(F)cc1Cl	inactive: 72%
Cc1cc(C)n(CCC(=O)Nc2ccc(Cl)cc2)n1	inactive: 72%
CCOc1ccc(N2CC(NC(=O)c3ccc4c(c3)OCO4)CC2=O)cc1 (configuration not stated)	inactive: 65%
CCCCNc1nc2c(S(=O)(=O)c3ccc(C)cc3)nnn2c2ccsc12	inactive: 113%
COc1ccccc1CNC(=O)CSc1nc(-c2ccc(OC)c(OC)c2)cc(C(F)(F)F)n1	inactive: 61%
CCOc1ccc(CCNC(=O)c2ccc3c(c2)N(Cc2ccc(F)cc2)CCS3)cc1	inactive: 78%
O=C(NCC(c1cccs1)S(=O)(=O)c1cccs1)c1ccc(F)c(F)c1 (configuration not stated)	inactive: 68%
Cc1ccc(N2CC(NC(=O)c3ccc(S(=O)(=O)N(C)C)cc3)CC2=O)cc1C (configuration not stated)	inactive: 81%
CCC(C)NC(=O)c1ccc2c(c1)sc1nc(-c3ccc(OC)cc3)cn12 (configuration not stated)	inactive: 77%
COC(=O)c1sccc1S(=O)(=O)N(CC(=O)Nc1cc(C)ccc1C)c1ccc(C)c(C)c1	inactive: 78%
C=CCc1c(C)nc(SC)nc1Nc1ccc(OC)cc1	inactive: 114%
O=C(CSc1nc2c([nH]c3ccccc32)c(=O)n1-c1cccc(Cl)c1)N1CCCC1	inactive: 63%
O=C(Cn1cc(S(=O)(=O)Cc2cccc(Cl)c2)c2ccccc21)Nc1ccccc1C(F)(F)F	inactive: 78%
CCCCc1ccc(-n2nc3ccc(NC(=O)c4cc5ccccc5o4)cc3n2)cc1	inactive: 75%
CC(C)Cc1cc(C(=O)NCc2ccc(Cl)cc2)no1	inactive: 112%
CCOC(=O)C1=C(c2ccccc2)N=C2SCC(=O)N2C1c1ccc(O)c(OC)c1 (configuration not stated)	inactive: 104%

SMILES	survival
CCc1ccc2oc(-c3ccc(C)c(NC(=O)c4cc([N+](=O)[O-])ccc4N4CCOCC4)c3)nc2c1	inactive: 80%
COC(=O)CN1C(=O)CSc2ccc(S(=O)(=O)Nc3ccc(F)c(Cl)c3)cc21	inactive: 88%
CCC(CC)C(=O)N1c2ccccc2C(C)(c2ccccc2)CC1(C)C (configuration not stated)	active: -2%
CSc1ncc(C(=O)Nc2cc(C)cc(C)c2)c(-c2ccccc2)n1	inactive: 73%
COc1ccc(-n2c(=O)c3c4c(sc3n(Cc3ccc(F)cc3)c2=O)CN(C(C)=O)CC4)c(OC)c1	inactive: 150%
COc1ccc(C(=O)NCCSc2c[nH]c3ccccc23)cc1OC	inactive: 94%
Clc1ccc(CSc2ccc(-c3cccs3)nn2)cc1	inactive: 114%
Cc1cc(C)c(Cn2c(=O)n(CCC(=O)NCCc3ccccc3)c(=O)c3ccccc32)c(C)c1	inactive: 74%
CN1CCN(C(CNC(=O)c2ccc(F)cc2)c2ccc3c(c2)OCO3)CC1 (configuration not stated)	inactive: 70%
COc1ccc(OC)c(CCNC(=O)c2c(C)oc3ncn(CC(C)C)c(=O)c23)c1	inactive: 83%
CC(=O)N1CCc2c(sc3c2c(=O)n(Cc2ccccc2)c(=O)n3Cc2ccc(Cl)cc2)C1	inactive: 108%
O=C(O)c1sc(Nc2ccccc2)nc1-c1ccccc1	inactive: 141%
CCOCCCn1c(SCC(=O)Nc2ccccc2CC)nc2ccccc2c1=O	inactive: 89%
CCCCCN1N=C(C)CC1=O	inactive: 91%
CC(=O)Nc1ccc(C(=O)CSc2nc3ccccc3n2C)cc1	inactive: 117%
CCOC(=O)Cn1c(=O)oc2cc(S(=O)(=O)N3CCN(c4cccc(Cl)c4)CC3)ccc21	inactive: 88%
Cc1ccc(NC(=O)c2cccc3c(=O)c4c([nH]c23)CCCC4)c(C)c1	inactive: 66%
N#Cc1cc2c(ccc3ccccc32)oc1=N	inactive: 109%
O=C(CNc1ccccc1Cl)N/N=C1\CCCc2ccccc21	inactive: 105%
